Reference: PubChem BioAssay AID1671188 (National Center for Advancing Translational Sciences (NCATS), 2021)
Among all 100,000 compounds or so, about 250 (0.25%) were called active. Inconclusive means that the source gave no clear call. Such entries were picked first, then a sample of the others. Calls come from the whole dose curve; as a rule, active = well fitted inhibition curve with a large enough effect; inconclusive = small, poorly fitted or top-dose-only effect; inactive = flat fitted curve, though single readings scatter. No potency is given beside an inconclusive call; the fits are too rough.

Target: Alanine aminotransferase 2 (Homo sapiens) (UniProt Q8TD30)
Assay: Primary qHTS assay for inhibitors of Glutamate pyruvate transaminase 2 (GPT2); note: nearly all actives have a fitted effect of over 60% in size
Settings: Recombinant GPT2, coupled pyruvate oxidase/HRP Amplex Red fluorescence; series mostly up to 57.7 µM
Procedure, shortened: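 Inhibition is scored from Amplex Red fluorescence generated when pyruvate oxidase and HRP act on pyruvate released by GPT2. Reactions contain 10ng/uL enzyme, 250uM a-KG and 2mM L-alanine and run 30 min at room temperature.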
Potency is the fitted concentration of half-maximal effect; tags give direction and shape of the fitted curve.

UniProt Q8TD30, sequence (Q8TD30 whole entry, looked up): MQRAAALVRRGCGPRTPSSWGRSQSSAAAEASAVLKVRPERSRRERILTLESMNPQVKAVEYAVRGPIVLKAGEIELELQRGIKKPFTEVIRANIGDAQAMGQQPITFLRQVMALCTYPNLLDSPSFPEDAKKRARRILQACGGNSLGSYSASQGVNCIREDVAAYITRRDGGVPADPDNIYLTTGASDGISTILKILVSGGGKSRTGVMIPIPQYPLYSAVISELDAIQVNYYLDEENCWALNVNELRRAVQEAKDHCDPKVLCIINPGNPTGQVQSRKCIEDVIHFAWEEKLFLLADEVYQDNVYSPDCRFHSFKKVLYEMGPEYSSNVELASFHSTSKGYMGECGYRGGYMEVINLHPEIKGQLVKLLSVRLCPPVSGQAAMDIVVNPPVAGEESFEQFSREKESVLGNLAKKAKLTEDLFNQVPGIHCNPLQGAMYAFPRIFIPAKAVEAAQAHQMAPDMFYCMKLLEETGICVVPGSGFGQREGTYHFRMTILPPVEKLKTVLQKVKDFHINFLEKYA

Compound	Potency
O=C1NC[C@@H](CCC(=O)N2CCCC2)N2C[C@@H](NCc3cccc(Cl)c3)C[C@@H]12	inactive
CC1=C(C(=O)O)N2C(=O)[C@@H](NC(=O)C(N)c3ccccc3)[C@H]2SC1 (some centres not stated)	inconclusive [inhibitor, single point]
COc1cccc(N2C(=O)NC(=NC3CCCCC3)C23CCCN([S+](=O)([O-])c2cccc(OC)c2)C3)c1 (configuration not stated)	inconclusive [inhibitor, single point]
CCO[C@@H]1COCC[C@H]1NC(=O)c1ccoc1COc1ccc(C)cc1	inconclusive [inhibitor, full curve]
CN(C)C(=O)c1ccnc(-c2nnc3ccc(NC4CCCCC4)nn23)c1	inactive
O=C(c1cccc(Cl)c1)N1CCCC1C(=O)N1CCCC1c1nc2ccncc2[nH]1 (configuration not stated)	inactive
CCOc1ccc(-c2noc(-c3nc(C)no3)n2)cc1	inactive
O=C1CC(c2noc(-c3ccccc3)n2)CN1c1ccc(Cl)cc1 (configuration not stated)	inconclusive [inhibitor, single point]
COc1ccc(NC(=O)C2(C)CCc3cnc(N4CCOCC4)nc32)cn1 (configuration not stated)	inconclusive [inhibitor, single point]
COc1ccc(C(=O)N2CCC3(CC2)N=C(c2ccccc2)NO3)cc1OC	inactive
COc1ccc(CCC(=O)N2CCC(Cc3nncn3-c3ccccc3)C2)cc1 (configuration not stated)	inactive
COc1cc(N2CCC(N3CCN(C)CC3)CC2)ccc1Nc1ncc(Cl)c(Nc2ccccc2P(C)(C)=O)n1	inconclusive [inhibitor, full curve, poor fit]
Clc1ccc(-c2cnc([C@@H]3COCCN3Cc3csnn3)[nH]2)cc1	inactive
Cc1ccccc1N1Cc2c(NC3CCCC3)ncnc2N(C)CC1=O	inconclusive [inhibitor, full curve, poor fit]
Cc1nnc(-c2cc(-c3ccccc3)ccn2)n1CCN1CCOCC1	inconclusive [inhibitor, full curve, poor fit]
CCn1ccc2sc(C)c(C(=O)NCc3ccccc3C)c2c1=O	inconclusive [inhibitor, single point]
CN(Cc1noc(C2CCCC2)n1)C(=O)Cn1ncc2ccccc2c1=O	inconclusive [inhibitor, partial curve, poor fit]
Cc1cc(N)c2ccccc2[n+]1CCCCCCCCCC[n+]1c(C)cc(N)c2ccccc21	inconclusive [inhibitor, single point]
O=C(O)COCC(=O)N[C@H]1CCN2C(=O)c3cc(-c4ccc(F)cc4F)ccc3NC(=O)[C@H]12	inconclusive [inhibitor, single point]
COc1ccc(C(=O)N[C@@H]2CCC[C@@H]2C(=O)NC(C)C)cc1	inconclusive [inhibitor, full curve, poor fit]
COc1ccc(C(=O)N2CCCC(n3cc(-c4nc(C)no4)nn3)C2)cc1OC (configuration not stated)	inconclusive [inhibitor, partial curve, poor fit]
COCC1CN(C)CC12CCN(S(=O)(=O)c1cc(F)cc(F)c1)CC2 (configuration not stated)	inconclusive [inhibitor, single point]
O=C(c1nc2cccnc2n(C2CC2)c1=O)N1CCN([S+](=O)([O-])c2cccs2)CC1	inactive

Compound	Potency
O=C(Cc1cccc(Cl)c1)N1CCC(c2nn(-c3ccc(Cl)cc3)c(=O)[nH]2)CC1	inconclusive [inhibitor, single point]
O=C(c1ccccc1)N1CCCC2(C1)Nc1cccnc1NC2=NC1CCCC1 (configuration not stated)	inconclusive [inhibitor, partial curve, poor fit]
CCOCC1(C)COc2ccc(C(=O)Nc3ccc(F)c(Cl)c3)cc2N1 (configuration not stated)	inactive
COCCN1CC2(CCOC2)N(C2CCN(C(=O)c3ccc(OC)cc3)CC2)C1=O (configuration not stated)	inconclusive [inhibitor, single point]
COc1ccc(C(=O)N[C@@H]2c3ccccc3C3(CCNCC3)[C@H]2OC)cc1C	inactive
CCc1ccc(CN2CC3ON=C(C(=O)O)C3C2)cc1 (configuration not stated)	inconclusive [inhibitor, single point]
Cc1c(O)cccc1C(=O)N1CCCC2(C1)C(=O)N(C)c1ccccc12 (configuration not stated)	inconclusive [inhibitor, single point]
CC(=O)Nc1ccc(S(=O)(=O)N[C@H]2C[C@@H](c3nc(-c4ccccc4)no3)N(C)C2)cc1	inactive
CC(C)OCCCNC(=O)c1cc2cn(C(C)C)cc2s1	inconclusive [inhibitor, single point]
COCCNC(=O)c1nc2cccnc2n(CCOC)c1=O	inactive
COc1ccc(CC(=O)N2CCc3nc(-c4cccnc4)[nH]c3C2)cc1	inconclusive [inhibitor, single point]
Cc1cccc(OCC2(CNCc3cnn(C)c3)C[C@@H](O)[C@@H](O)C2)n1 (some centres not stated)	inconclusive [inhibitor, full curve, poor fit]
Cc1ccc(-c2cc(C(=O)NC3CC3)nn3cnnc23)cc1	inactive
CCOCC(=O)N1CCN(c2nnnn2-c2ccccc2)CC(O)C1 (configuration not stated)	inactive
Cc1cccc(C(=O)N2CCCN(Cc3ccncc3)C(c3ccccc3)CC(=O)NCC2)c1 (configuration not stated)	inactive
CCN1c2cc(C(=O)Nc3ccc(C)c(C)c3)ccc2C(=O)N2CCCCC21 (configuration not stated)	inactive
CCc1ccc(S(=O)(=O)N2CCC(n3cnnc3C)CC2)cc1	inactive
CN(C)Cc1ccccc1CN(C)c1nc(-c2cccnc2)nc2c1CNC2	inconclusive [inhibitor, single point]
C[C@@H]1C(=O)NC2=Nc3cccc(Cl)c3CN21	inconclusive [inhibitor, single point]
C=CCOc1cccc(-c2nc(C(=O)NCc3cccc(F)c3)cs2)c1	inconclusive [inhibitor, single point]
O=C1NCCCCCCN[C@H]2C[C@H](c3nc(-c4cccnc4)no3)C[C@@H]12	inactive
Cc1ccc(-n2nc3n(c2=O)CCN(C(=O)C2CCCC2)C3)cc1	inconclusive [inhibitor, full curve, poor fit]
Cc1cnn(-c2ccccc2)c1NC(=O)COCc1ccccc1	inconclusive [inhibitor, single point]

Compound	Potency
COC(=O)[C@@H]1Cc2ncn(Cc3ccc(OC)cc3)c2CN1S(=O)(=O)c1ccc(F)cc1	inconclusive [inhibitor, single point]
C=CC1(C)CC(O)C2(CCC3C(C)(C(=O)O)CCCC3(C)C2=O)C1 (configuration not stated)	inconclusive [inhibitor, partial curve, poor fit]
CC(C)CNCc1ccc(-c2ccccc2S(=O)(=O)N2CCCC2)cc1	inconclusive [inhibitor, single point]
C[C@H]1[C@@H]2[C@@H](O)C([C@H](C)C(=O)NCc3ccco3)CC[C@@]2(C)CC[C@@H]1NC(=O)c1cncnc1 (some centres not stated)	inconclusive [inhibitor, single point]
COc1ccccc1C(=O)N1CCCC(c2nnc3n2CCN(C(=O)C2CC2)C3)C1 (configuration not stated)	inactive
C/C1=C\CCC2=CC(OC2=O)C(C)(C)/C=C/C1=O (configuration not stated)	inactive
CCOC(=O)C1CCN(C(=O)c2ccc3nnc(-c4cccc(C(F)(F)F)c4)n3c2)CC1	inconclusive [inhibitor, single point]
C=CCn1cc2c3c(cccc31)[C@H](CC(C)C)N[C@H](C(=O)NCc1ccc(F)cc1)C2	inconclusive [inhibitor, single point]
Cc1ccc(NC(=O)NC[C@H]2O[C@@H](CC(=O)NCCN(C)C)[C@H](O)[C@@H]2O)cc1	inconclusive [inhibitor, single point]
CCC(C)C(=O)N1CCC2(CC1)NCCc1c2[nH]c2ccccc12 (configuration not stated)	inconclusive [inhibitor, single point]
COCCC(=O)N1CCc2nnc([C@@H]3C[C@@H](O)CN3C(C)C)n2CC1	inconclusive [inhibitor, full curve, poor fit]
CC1Oc2ccc(NC(=O)c3ccc([N+](=O)[O-])cc3)cc2CN(Cc2ccccc2F)C1=O (configuration not stated)	inactive
COCCc1noc([C@@H]2CC(F)(F)CN2C(=O)c2ccoc2)n1	inconclusive [inhibitor, partial curve]
O=C(CN1C(=O)NC2(CCOCC2)C1=O)Nc1ccc(Cl)cc1	inactive
CC(=O)N1Cc2ccccc2CC2(CCCN(CCc3ccccc3)C2)C1 (configuration not stated)	inactive
COCCn1ncc(N2CCC(NC(=O)c3ccc(C(C)C)cc3)CC2)cc1=O	inconclusive [inhibitor, single point]
CN(C)c1cc(N2CCCC(NC(=O)Cc3ccccc3)C2)ncn1 (configuration not stated)	inconclusive [inhibitor, partial curve, poor fit]
O=S(=O)(c1ccc2c(c1)CCC2)N1CCC(Cc2nc(-c3ccncc3)n[nH]2)C1 (configuration not stated)	inactive
COc1ccccc1-c1cccc(CN2CCC(NC(=O)Nc3ccccc3)CC2)c1	inconclusive [inhibitor, single point]
CN1CCN(C(=O)c2ccc3nnc(-c4cc(C(F)(F)F)cc(C(F)(F)F)c4)n3c2)CC1	inactive
COc1ccc(C[C@H](NC(=O)C2=C[C@@H](NC(=O)c3cccnc3)[C@@H](O)[C@H](O)C2)C(N)=O)cc1	inconclusive [inhibitor, single point]
